Measured values: PubChem BioAssay AID1508642 (National Center for Advancing Translational Sciences (NCATS), 2021)
About 200 (0.47%) of roughly 43,000 compounds were called active. Not shown: some 12% with an inconclusive outcome. Calls come from the whole dose curve; as a rule, active = well fitted cell-killing curve with a large enough effect; inconclusive = small, poorly fitted or top-dose-only effect, or effect the other way; inactive = flat fitted curve, though single readings scatter. Some of the results follow.

Experiment: Cell viability qHTS assay in S16 Pmp22-F2sN cells; note: nearly all actives have a fitted effect of over 65% in size
Conditions: S16 Pmp22-F2sN Schwann cells (luciferase reporters placed in the Pmp22 gene) viability, CellTiter-Glo, 24 h; series mostly up to 57.5 µM; activity change, negative = cytotoxicity: at the top concentration
Method in brief: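 Seed 500-1,000 S16 Pmp22-F2sN cells per well in phenol-red-free DMEM with 10% heat-inactivated FBS; pin-add 23 nL compound; incubate 24 h at 37C; add CellTiter-Glo, wait 15 min protected from light; read luminescence.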
% is set by controls: 0 for no effect and ±100 for the full control effect.

| SMILES | activity change, negative = cytotoxicity |
| --- | --- |
| O=C(Cn1ccn(-c2ccc(F)cc2)c(=O)c1=O)NCCc1ccccc1 | inactive: 9.41% |
| CC(=O)N1c2ccc(S(=O)(=O)N3CCN(c4ccc(C)cc4C)CC3)cc2CC1C (stereo not drawn) | inactive: -16.3% |
| CCOc1ccc(N(c2nc(-c3ccc(OC)c(OC)c3)no2)c2nc(-c3ccc(OC)c(OC)c3)no2)cc1 | inactive: 14.6% |
| COc1ccccc1N(CC(=O)NCCSCc1ccccc1Cl)S(C)(=O)=O | inactive: 1.24% |
| CCOC(=O)c1cnc2ccc(C)cc2c1Nc1ccc(OCc2ccccc2Cl)cc1 | inactive: -28.6% |
| Cc1ccc(OCC(=O)Nc2ccc3nc(SCC(=O)N4CCCC4)sc3c2)cc1 | inactive: 10.5% |
| O=C(CSc1nc2cc(C(=O)NC3CCCC3)ccc2c(=O)n1CC1CCCO1)c1ccc(F)cc1 (stereo not drawn) | inactive: 8.02% |
| Cc1ccc(C)c(S(=O)(=O)c2cn(Cc3ccccc3)c3cc(F)c(F)cc3c2=O)c1 | inactive: 0.74% |
| CNC(=O)c1ccc2c(c1)N=C(C)c1cc(C)ccc1S2 | inactive: -7.35% |
| COc1ccc2oc(-c3ccc(C)c(NC(=O)c4cccnc4)c3)nc2c1 | inactive: -3.31% |
| COc1cc(OC)c(NC(=O)CSc2nccn2C)cc1Cl | inactive: 21.8% |
| CC1CCN(c2oc(-c3cccs3)nc2S(=O)(=O)c2ccc(Cl)cc2)CC1 | inactive: -17.4% |
| Cc1ccc(CNC(=O)c2ccc(-n3c(C)cc4c3CCCC4)cc2)cc1 | inactive: -0.962% |
| CC(C)(C)C1CCc2oc3ccc(NS(=O)(=O)c4cc(Cl)ccc4Cl)cc3c2C1 (stereo not drawn) | inactive: -4.21% |
| CCCC(=O)OC1=CN(Cc2ccccc2)S(=O)(=O)c2ccccc21 | inactive: 2.58% |
| O=C(Cn1cc(SCc2cccc(F)c2)c2ccccc21)N1CCOCC1 | inactive: 0.344% |
| CCOC(=O)c1c(SCC(=O)Nc2nc3ccc(C)cc3s2)nc(=O)[nH]c1C | inactive: 5.19% |
| Cc1cccc(C(=O)Nc2nc3c(s2)CCCC3)c1 | inactive: -19.1% |
| c1ccc(CNc2ncnc3[nH]ncc23)cc1 | inactive: -14.6% |
| CCOC(=O)N1CCc2c(sc3c2c(=O)n(CCc2ccccc2)c(=O)n3Cc2ccc(C)cc2C)C1 | inactive: 15.4% |
| COc1ccc(-c2nc(CCNC(=O)Cc3ccc(F)cc3)cs2)cc1 | inactive: -1.54% |
| Cc1cccc(N2CCN(C(=O)CCNS(=O)(=O)c3ccc4c(c3)CCN4C(=O)C3CC3)CC2C)c1 (stereo not drawn) | inactive: -21.1% |
| O=C(NC1CC(=O)N(c2ccccc2)C1)c1cccs1 (stereo not drawn) | inactive: 7.21% |
| CCc1ccccc1NC(=O)N1CC(CC)Oc2ccc(Cl)cc21 (stereo not drawn) | inactive: -9.87% |

| SMILES | activity change, negative = cytotoxicity |
| --- | --- |
| CSc1ccc(CCNC(=O)c2ccc3c(c2)nc2n3CCC(C)C2)cc1 (stereo not drawn) | inactive: 17.1% |
| CCOCCc1nn2c(=O)cc(COC(=O)c3ccccc3NC(=O)c3cccs3)nc2s1 | inactive: 5.29% |
| COc1ccc(-c2nc3c(c(SCC(=O)Nc4cc(C)cc(C)c4)n2)Cc2c(CO)cnc(C)c2O3)cc1 | inactive: 14.3% |
| COc1cccc(CN2C(=O)C3(SCC(=O)N3c3ccc(F)cc3)c3ccccc32)c1 (stereo not drawn) | inactive: -11.8% |
| O=C(C1CCCN(S(=O)(=O)c2cccs2)C1)N1CCN(c2ccccc2F)CC1 (stereo not drawn) | inactive: -2.79% |
| CN1C(=O)c2ccccc2Sc2ccc(NC(=O)NCc3ccccc3Br)cc21 | inactive: -18.3% |
| Cc1ccc(CN(Cc2cccn2-c2nnc(N3CCCC3=O)s2)C(=O)Nc2cc(C)cc(C)c2)cc1 | inactive: 0.14% |
| Cc1nc2sc(C)c(C)n2c(=O)c1S(=O)(=O)NCCc1ccc(Cl)cc1 | inactive: -0.563% |
| O=C(NCc1cccc(Cl)c1)c1ccc2c(c1)nc1n2CCOC1 | inactive: -1.23% |
| CC(=O)c1ccc(NC(=O)c2cn(C)c(=O)c3ccccc23)cc1 | inactive: 10.6% |
| Cc1ccc(CN(Cc2ccco2)C(=O)c2ccccc2Cl)o1 | inactive: 3.9% |
| Fc1ccc(-c2nnc(CN3CCN(c4ccccn4)CC3)o2)cc1 | inactive: 5.31% |
| COc1ccc(C(=O)c2cn(Cc3ccc(F)cc3)c3c(F)cc(F)cc3c2=O)cc1 | inactive: 5.45% |
| O=C(C1COc2cc(S(=O)(=O)Nc3ccc(Cl)cc3)ccc2O1)N1CCCC1 (stereo not drawn) | inactive: 5.78% |
| CCc1ccc(S(=O)(=O)c2nnn3c2nc(N2CCN(CC)CC2)c2sccc23)cc1 | inactive: 5.05% |
| CCOC(=O)c1ccc(N2C(=O)c3n[nH]c(-c4ccco4)c3C2c2cccc(F)c2)cc1 (stereo not drawn) | inactive: 0.937% |
| Cc1ccc(NC(=O)CSc2nc3ccc(NC(=O)c4cccc(Cl)c4)cc3s2)c(C)c1 | inactive: 24.7% |
| COc1ccccc1C(=O)Nc1ccc(-c2nc3cc(C)cc(C)c3o2)cc1 | inactive: 12.4% |
| CCc1ccccc1N(C)C(=O)c1cc2c(s1)-c1c(C)cccc1OC2 | inactive: 9.5% |
| Cc1ccc(Cn2c(C)c(CNCc3ccccc3F)c(C(=O)O)c2C)cc1 | inactive: 3.86% |
| O=C(Cn1ncc2c3ccccc3n(Cc3ccccc3)c2c1=O)NCc1ccccc1 | inactive: 7.37% |
| CC(C)NS(=O)(=O)c1ccc(OCC(=O)N2CCN(c3cccc(Cl)c3)CC2)cc1 | inactive: 0.317% |
| COc1cc(C2C(C(=O)Nc3ccccc3)=C(C)Nc3nc(SCC(=O)c4ccc(C)cc4)nn32)ccc1O (stereo not drawn) | inactive: 4.61% |
| CCc1ccccc1NC(=O)C1=CC(c2ccc3c(c2)OCO3)=NS(=O)(=O)N1C | inactive: -0.897% |
